# Measurements: the supplement of paper PMC8728848
# The other results are listed elsewhere or left out.
# B1: PRKCE (Homo sapiens), Q02156 (protein)
# chain: MVVFNGLLKIKICEAVSLKPTAWSLRHAVGPRPQTFLLDPYIALNVDDSRIGQTATKQKTNSPAWHDEFVTDVCNGRKIELAVFHDAPIGYDDFVANCTIQFEELLQNGSRHFEDWIDLEPEGRVYVIIDLSGSSGEAPKDNEERVFRERMRPRKRQGAVRRRVHQVNGHKFMATYLRQPTYCSHCRDFIWGVIGKQGYQCQVCTCVVHKRCHELIITKCAGLKKQETPDQVGSQRFSVNMPHKFGIHNYKVPTFCDHCGSLLWGLLRQGLQCKVCKMNVHRRCETNVAPNCGVDARGIAKVLADLGVTPDKITNSGQRRKKLIAGAESPQPASGSSPSEEDRSKSAPTSPCDQEIKELENNIRKALSFDNRGEEHRAASSPDGQLMSPGENGEVRQGQAKRLGLDEFNFIKVLGKGSFGKVMLAELKGKDEVYAVKVLKKDVILQDDDVDCTMTEKRILALARKHPYLTQLYCCFQTKDRLFFVMEYVNGGDLMFQIQRSRKFDEPRSRFYAAEVTSALMFLHQHGVIYRDLKLDNILLDAEGHCKLADFGMCKEGILNGVTTTTFCGTPDYIAPEILQELEYGPSVDWWALGVLMYEMMAGQPPFEADNEDDLFESILHDDVLYPVWLSKEAVSILKAFMTKNPHKRLGCVASQNGEDAIKQHPFFKEIDWVLLEQKKIKPPFKPRIKTKRDVNNFDQDFTREEPVLTLVDEAIVKQINQEEFKGFSYFGEDLMP
# Key:
# Assay in all cases: glycan array binding signal (z-score within array); higher = stronger binding
# Conditions in all cases: glycan notation: IUPAC condensed, linker removed
# Gal3S4S(b1-4)GlcNAc = target: Gal3S4S(b1-4)GlcNAc
# Outline: (§1)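 Arrays were curated from the Consortium for Functional Glycomics database, 3228 in total, and kept only where the protein sequence was available. Binding is expressed as a within-array Z-score. This score was averaged across arrays of the same protein sequence at different concentrations or buffers and across linkers, and negative values can be read as non-binding.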
# Gal3S6S(b1-4)GlcNAc = target: Gal3S6S(b1-4)GlcNAc
# Outline: as §1
# Gal3S6S(b1-4)GlcNAc6S = target: Gal3S6S(b1-4)GlcNAc6S
# Outline: as §1
# Gal4S(b1-4)GlcNAc = target: Gal4S(b1-4)GlcNAc
# Outline: as §1
# Gal4S6S(b1-4)GlcNAc = target: Gal4S6S(b1-4)GlcNAc
# Outline: as §1
# Gal6P(b1-4)GlcNAc = target: Gal6P(b1-4)GlcNAc
# Outline: as §1
# Gal6S(b1-3)GlcNAc = target: Gal6S(b1-3)GlcNAc
# Outline: as §1
# Gal6S(b1-3)GlcNAc6S = target: Gal6S(b1-3)GlcNAc6S
# Outline: as §1
# Gal6S(b1-4)Glc = target: Gal6S(b1-4)Glc
# Outline: as §1
# Gal6S(b1-4)Glc6S = target: Gal6S(b1-4)Glc6S
# Outline: as §1
# Gal6S(b1-4)GlcNAc = target: Gal6S(b1-4)GlcNAc
# Outline: as §1
# Gal6S(b1-4)GlcNAc6S = target: Gal6S(b1-4)GlcNAc6S
# Outline: as §1
# GalNAc(a1-3)Gal = target: GalNAc(a1-3)Gal
# Outline: as §1
# GalNAc(a1-3)GalNAc = target: GalNAc(a1-3)GalNAc
# Outline: as §1
# [1] = target: GalNAc(a1-3)GalNAc(b1-3)Gal(a1-4)Gal(b1-4)Glc
# Outline: as §1
# [2] = target: GalNAc(a1-3)GalNAc(b1-3)Gal(a1-4)Gal(b1-4)GlcNAc
# Outline: as §1
# GalNAc(b1-3)Gal = target: GalNAc(b1-3)Gal
# Outline: as §1
# [3] = target: GalNAc(b1-3)Gal(a1-4)Gal(b1-4)GlcNAc
# Outline: as §1
# [4] = target: GalNAc(b1-3)Gal(a1-4)Gal(b1-4)GlcNAc(b1-3)Gal(b1-4)Glc
# Outline: as §1
# [5] = target: GalNAc(b1-3)Gal(a1-6)Gal(b1-4)Glc
# Outline: as §1
# GalNAc(b1-3)GalNAc = target: GalNAc(b1-3)GalNAc
# Outline: as §1
# GalNAc(b1-4)Gal(b1-4)Glc = target: GalNAc(b1-4)Gal(b1-4)Glc
# Outline: as §1
# GalNAc(b1-4)GlcNAc = target: GalNAc(b1-4)GlcNAc
# Outline: as §1
# [6] = target: GalNAc(b1-4)GlcNAc(b1-2)Man(a1-3)[GalNAc(b1-4)GlcNAc(b1-2)Man(a1-6)]Man(b1-4)GlcNAc(b1-4)GlcNAc
# Outline: as §1
# GalNAc(b1-4)GlcNAc6S = target: GalNAc(b1-4)GlcNAc6S
# Outline: as §1
# GalNAc(b1-6)GalNAc = target: GalNAc(b1-6)GalNAc
# Outline: as §1
# GalNAc3S(b1-4)GlcNAc = target: GalNAc3S(b1-4)GlcNAc
# Outline: as §1
# GalNAc3S(b1-4)GlcNAc3S = target: GalNAc3S(b1-4)GlcNAc3S
# Outline: as §1
# GalNAc4S6S(b1-4)GlcNAc = target: GalNAc4S6S(b1-4)GlcNAc
# Outline: as §1
# GalNAc6S(b1-4)GlcNAc = target: GalNAc6S(b1-4)GlcNAc
# Outline: as §1
binder,measurement,setting,value
B1,glycan array binding signal (z-score),Gal3S4S(b1-4)GlcNAc,8.77
same,glycan array binding signal (z-score),Gal3S6S(b1-4)GlcNAc,-0.175
same,glycan array binding signal (z-score),Gal3S6S(b1-4)GlcNAc6S,-0.384
same,glycan array binding signal (z-score),Gal4S(b1-4)GlcNAc,-0.383
same,glycan array binding signal (z-score),Gal4S6S(b1-4)GlcNAc,-0.31
same,glycan array binding signal (z-score),Gal6P(b1-4)GlcNAc,-0.166
same,glycan array binding signal (z-score),Gal6S(b1-3)GlcNAc,-0.341
same,glycan array binding signal (z-score),Gal6S(b1-3)GlcNAc6S,2.33
same,glycan array binding signal (z-score),Gal6S(b1-4)Glc,-0.275
same,glycan array binding signal (z-score),Gal6S(b1-4)Glc6S,-0.115
same,glycan array binding signal (z-score),Gal6S(b1-4)GlcNAc,-0.405
same,glycan array binding signal (z-score),Gal6S(b1-4)GlcNAc6S,3.2
same,glycan array binding signal (z-score),GalNAc(a1-3)Gal,-0.408
same,glycan array binding signal (z-score),GalNAc(a1-3)GalNAc,-0.416
same,glycan array binding signal (z-score),[1],-0.227
same,glycan array binding signal (z-score),[2],-0.409
same,glycan array binding signal (z-score),GalNAc(b1-3)Gal,-0.412
same,glycan array binding signal (z-score),[3],-0.251
same,glycan array binding signal (z-score),[4],-0.217
same,glycan array binding signal (z-score),[5],-0.278
same,glycan array binding signal (z-score),GalNAc(b1-3)GalNAc,-0.41
same,glycan array binding signal (z-score),GalNAc(b1-4)Gal(b1-4)Glc,-0.016
same,glycan array binding signal (z-score),GalNAc(b1-4)GlcNAc,-0.33
same,glycan array binding signal (z-score),[6],-0.427
same,glycan array binding signal (z-score),GalNAc(b1-4)GlcNAc6S,-0.272
same,glycan array binding signal (z-score),GalNAc(b1-6)GalNAc,-0.41
same,glycan array binding signal (z-score),GalNAc3S(b1-4)GlcNAc,-0.338
same,glycan array binding signal (z-score),GalNAc3S(b1-4)GlcNAc3S,0.501
same,glycan array binding signal (z-score),GalNAc4S6S(b1-4)GlcNAc,-0.211
same,glycan array binding signal (z-score),GalNAc6S(b1-4)GlcNAc,-0.375
